The values below come from PMC6919601, “Identification of Plasmodium dipeptidyl aminopeptidase allosteric inhibitors by high throughput screening” (PLoS ONE, 2019).

Out of some 110,000 compounds screened, about 230 (0.21%) showed an effect of 50% or more. The list shows a part of the results.
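Also: 30 min substrate incubation versus DMSO and 10 µM JCP410 controls.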

This assay deals with DPAP1 (Plasmodium falciparum, UniProt Q8IIJ9). Briefly: primary screen, percent inhibition; read by cleavage of a fluorogenic dipeptide substrate; higher = more effect of the substance. Also on record: species or system P. falciparum D10 trophozoite lysates; single well.
DPAP1, sequence (Q8IIJ9 whole entry, looked up): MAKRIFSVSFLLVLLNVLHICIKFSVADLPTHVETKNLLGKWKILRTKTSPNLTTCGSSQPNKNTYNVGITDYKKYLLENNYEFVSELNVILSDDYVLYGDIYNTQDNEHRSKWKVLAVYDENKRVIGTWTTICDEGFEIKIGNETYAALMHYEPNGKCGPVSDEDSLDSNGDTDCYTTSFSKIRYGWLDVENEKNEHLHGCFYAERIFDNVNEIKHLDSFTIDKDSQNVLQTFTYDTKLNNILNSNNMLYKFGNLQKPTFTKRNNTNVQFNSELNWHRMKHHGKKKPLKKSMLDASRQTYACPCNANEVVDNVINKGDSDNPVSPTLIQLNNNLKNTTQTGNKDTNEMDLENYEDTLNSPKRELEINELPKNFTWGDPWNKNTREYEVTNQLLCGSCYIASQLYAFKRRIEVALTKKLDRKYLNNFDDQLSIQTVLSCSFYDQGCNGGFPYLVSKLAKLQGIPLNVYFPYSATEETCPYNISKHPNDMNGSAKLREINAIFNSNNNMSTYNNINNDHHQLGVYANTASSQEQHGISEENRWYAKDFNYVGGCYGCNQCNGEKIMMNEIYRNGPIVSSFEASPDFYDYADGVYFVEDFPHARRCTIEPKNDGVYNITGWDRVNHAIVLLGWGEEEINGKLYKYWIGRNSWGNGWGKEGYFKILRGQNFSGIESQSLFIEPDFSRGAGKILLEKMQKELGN
On to `CCOc1ccccc1NC(=O)COc1ccc(C)cc1C`, for which the “% Inhibition @ 10 uM” value is listed as -6.05%.

As for `CC(=O)Nc1ccc(NC(=O)C2CCCC2)cc1`, the “% Inhibition @ 10 uM” value is recorded as 2.27%.

Turning to `Cn1c(SCc2ccccc2)nc2ccccc2c1=O`, the “% Inhibition @ 10 uM” value is reported as -9.7%.

Consider `CCCNC1=N/C(=C\c2ccccc2)C(=O)N1c1ccc(C)cc1`, for which the “% Inhibition @ 10 uM” value is recorded as -1.22%.

As for `CC1CCN(c2ccc([N+](=O)[O-])cn2)CC1`, the “% Inhibition @ 10 uM” value was -5.2%.

On to `O=c1c(CN2CCCC2CO)coc2ccc(Cl)cc12` (centres unmarked), for which the “% Inhibition @ 10 uM” value is recorded as -3.15%.

As for `CC1=CC(C)(C)NC(=S)N1c1cccc(C(=O)/C=C/c2ccc(Cl)cc2Cl)c1`, the “% Inhibition @ 10 uM” value stood at 2.22%.

As for `O=C(CN1C(=O)c2cccc3cccc1c23)NC1CC1`, the “% Inhibition @ 10 uM” value is 1.92%.

For the compound `O=C(NC1CCCCCC1)C1CCC(CNS(=O)(=O)c2ccccc2)CC1` (centres unmarked), the “% Inhibition @ 10 uM” value is recorded as -4.76%.

Consider `Cc1cc(C)c(S(=O)(=O)NCC(=O)Nc2ccc(F)cc2)c(C)c1`, for which the “% Inhibition @ 10 uM” value amounted to 1.94%.

Take `N#Cc1ccccc1Oc1nc(Cl)cn(-c2ccccc2)c1=O`: the “% Inhibition @ 10 uM” value worked out at 3.05%.

Turning to `N#C/C(=C\c1c(Oc2ccccc2Cl)nc2ccccn2c1=O)c1nc2ccccc2[nH]1`, the “% Inhibition @ 10 uM” value is reported as -1.86%.

As for `O=C(O)/C=C/c1ccc2c(-c3ccccc3)onc2c1`, the “% Inhibition @ 10 uM” value was -7.35%.

As for `COc1ccc(OC)c(-c2cc(C(=O)N3N=C(C(F)F)CC3(O)C(F)F)c3ccccc3n2)c1` (centres unmarked), the “% Inhibition @ 10 uM” value is recorded as 3.72%.

On to `O=C(CCc1nc2ccccc2s1)c1ccc(F)cc1`, for which the “% Inhibition @ 10 uM” value is on record as 2.57%.

Turning to `CN(C)/C=C/C=C1\CCc2ccccc2C1=O`, the “% Inhibition @ 10 uM” value is listed as 10.7%.

Regarding `CCOC(=O)/C(C#N)=C\c1c(C)c(C)cc(C)c1C`, the “% Inhibition @ 10 uM” value is recorded as -2.51%.

On to `Cc1ccccc1C(=O)Nc1ccccc1C(C)C`, for which the “% Inhibition @ 10 uM” value is recorded as -2.35%.

For the compound `COc1ccc2c(c1)CC/C(=C\c1cc(Br)cs1)C2=O`, the “% Inhibition @ 10 uM” value was -0.503%.

Regarding `CCOc1ccc(C(C)NC(=O)CCC(=O)O)cc1` (centres unmarked), the “% Inhibition @ 10 uM” value was 20.2%.

In the case of `CCOC(=O)c1c(Cc2cccc(Cl)c2)c[nH]c1C`, the “% Inhibition @ 10 uM” value was -5.4%.

Take `COc1ccccc1N(CC(=O)Nc1cc(C)ccc1C)S(=O)(=O)c1ccccc1`: the “% Inhibition @ 10 uM” value was -3.25%.

Consider `O=C(C1CCC(CNS(=O)(=O)c2cccc3nsnc23)CC1)N1CCOCC1` (centres unmarked), for which the “% Inhibition @ 10 uM” value turned out to be 6.1%.

For the compound `Cc1ccc(Cn2c(CN3CCCCC3C)nc3c2c(=O)n(C)c(=O)n3C)cc1` (centres unmarked), the “% Inhibition @ 10 uM” value came out at 2.9%.

Consider `Cn1c(=O)c2c(nc(N3CCOCC3)n2CCCNC2=NCCCCC2)n(C)c1=O`, for which the “% Inhibition @ 10 uM” value came to 1.57%.

Turning to `Cc1ccc(C2=NN(C(=O)CCC(=O)O)C(c3ccc(F)cc3)C2)cc1` (centres unmarked), the “% Inhibition @ 10 uM” value is recorded as -3.76%.

Turning to `COc1ccc(CCNC(=O)Cn2cnc3c(nnn3Cc3ccc(F)cc3)c2=O)cc1OC`, the “% Inhibition @ 10 uM” value is on record as 5.74%.

In the case of `COc1ccc(OC)c(CNc2cc(C)cc(C)c2)c1`, the “% Inhibition @ 10 uM” value was 0.219%.

`COC(=O)c1ccc(-c2nc(-c3ccc4c(c3)OCO4)no2)cc1`: the “% Inhibition @ 10 uM” value came to 4.31%.

On to `CCOc1ccc(-n2c(SCC(N)=O)nc3sc4c(c3c2=O)CCCC4)cc1`, for which the “% Inhibition @ 10 uM” value is -1.84%.

As to `Cc1cccc(OCC(=O)N2CCN(c3cccc(Cl)c3)CC2)c1C`, the “% Inhibition @ 10 uM” value is -0.564%.

Take `OC1(C#CCN(C2CCCCC2)C2CCCCC2)CCCCC1`: the “% Inhibition @ 10 uM” value is listed as -0.128%.

Take `COC(=O)CSc1nc2ccc(N)cc2s1`: the “% Inhibition @ 10 uM” value is recorded as 3.65%.

Turning to `CCC(C(=O)N1CCCC1)N1N=C(c2ccccc2)Oc2ccccc2C1=O` (centres unmarked), the “% Inhibition @ 10 uM” value is given as -0.142%.

For `CCOc1ccc(-c2nc(CSCC(=O)NCCc3ccc(C)cc3)c(C)o2)cc1`, the “% Inhibition @ 10 uM” value is on record as -0.971%.

Turning to `O=C(CSc1ccccc1)Nc1ccc2c(c1)C(=O)N(C1CCCCC1)C2=O`, the “% Inhibition @ 10 uM” value is 5.43%.

`Cc1nn(C)cc1CN(C)C(=O)c1nn2c(c1Cl)NC(c1cccs1)CC2C(F)(F)F` (centres unmarked): the “% Inhibition @ 10 uM” value was -0.988%.

As to `O=S(=O)(c1ccc2ccccc2c1)N1CCN(c2ncnc3sc4c(c23)CCCC4)CC1`, the “% Inhibition @ 10 uM” value was determined as 3.47%.

Consider `CN(C)CCNC(=O)Cn1cnc2c(nc3n2CCCCC3)c1=O`, for which the “% Inhibition @ 10 uM” value was determined as 0.00353%.

Take `Fc1ccc(CN2CCN(c3ccccc3)CC2)cc1`: the “% Inhibition @ 10 uM” value is recorded as -0.0404%.

`O=C1CCC(c2ccccc2)N1C(=O)c1ccc(Cl)cc1` (centres unmarked): the “% Inhibition @ 10 uM” value was 3.85%.

For the compound `CCC1CCCCN1C(=O)c1sc2nc(-c3ccccc3)cn2c1C` (centres unmarked), the “% Inhibition @ 10 uM” value is -3.7%.

Turning to `O=C(NCCN1CCOCC1)c1cc2c(s1)-c1ccccc1OC2`, the “% Inhibition @ 10 uM” value is reported as 0.291%.

Turning to `CCN(CC)CCCNC(=O)CSc1nc2nc(C)c(Cc3ccccc3Cl)c(C)n2n1`, the “% Inhibition @ 10 uM” value is reported as 0.813%.

For the compound `CCN(CC)Cc1c(O)ccc2occ(C(=O)c3cc(OC)ccc3OC)c12`, the “% Inhibition @ 10 uM” value is reported as -7.75%.

Regarding `Cc1cccc(NC(=O)c2ccncc2)c1C`, the “% Inhibition @ 10 uM” value is on record as -3.65%.

Turning to `CCOC(=O)C1=C(C)NC(=O)NC1c1cccc(F)c1` (centres unmarked), the “% Inhibition @ 10 uM” value is reported as 1.13%.

As for `c1ccc(CCN2CCC(NC3CCCCCCC3)CC2)cc1`, the “% Inhibition @ 10 uM” value is listed as -1.15%.

Turning to `COc1ccc(-c2cc(C(=O)NC3CCCC3)no2)cc1`, the “% Inhibition @ 10 uM” value is listed as -8.55%.

Turning to `CC(C)(C)NC(=O)c1nn2c(c1Cl)NC(c1ccccc1)CC2C(F)(F)F` (centres unmarked), the “% Inhibition @ 10 uM” value is -0.996%.

As for `COc1ccc(C2CC(c3cccc(Br)c3)Nc3ncnn32)c(OC)c1OC` (centres unmarked), the “% Inhibition @ 10 uM” value came out at 0.0842%.

For `O=C1C=C(NCCc2ccccc2)CC(c2ccco2)C1` (centres unmarked), the “% Inhibition @ 10 uM” value was -2.87%.

`O=C(O)CCCN1C(=O)C(O)=C(C(=O)c2ccc(Br)cc2)C1c1ccc(F)cc1` (centres unmarked): the “% Inhibition @ 10 uM” value is on record as 0.755%.

As for `Cc1ccc(-n2ncc(C(=O)NCCC(C)C)c2C2CCN(C(=O)OC(C)(C)C)CC2)cc1`, the “% Inhibition @ 10 uM” value worked out at 6.36%.

In the case of `Brc1ccc(-n2nnnc2-c2nc3ccccc3[nH]2)cc1`, the “% Inhibition @ 10 uM” value is given as -3.53%.

`CC1CN(C(C)(C)C)CCC1(O)c1ccccc1` (centres unmarked): the “% Inhibition @ 10 uM” value is recorded as -1.77%.

Consider `O=C(COc1ccc(Br)cc1)NC(Cc1ccccc1)C(=O)O` (centres unmarked), for which the “% Inhibition @ 10 uM” value is reported as -8.12%.

For `C=CCOc1ccc(Cl)cc1C=C1C(=O)N(C)C(=O)N(C)C1=O`, the “% Inhibition @ 10 uM” value turned out to be 5.94%.

Turning to `COc1ccc(CCNCc2c(C(=O)O)[nH]c3ccccc23)cc1OC`, the “% Inhibition @ 10 uM” value is on record as -5.05%.

As for `Nc1ccn(Cc2ccccc2)n1`, the “% Inhibition @ 10 uM” value is listed as -1.24%.

As for `Fc1ccccc1COc1ccc(Br)cc1CNCC1CCCO1` (centres unmarked), the “% Inhibition @ 10 uM” value is given as -3.45%.

Consider `C=CCc1cccc2cc(C(=O)N(CC)CC)c(=O)oc12`, for which the “% Inhibition @ 10 uM” value was -0.268%.

Regarding `CC(=O)N1C=CN(C(C)=O)C(c2cn(C)c3ccccc23)C1c1cn(C)c2ccccc12` (centres unmarked), the “% Inhibition @ 10 uM” value was determined as 7.8%.

Turning to `CCN(CC)CCCNC(=O)CS(=O)(=O)Cc1nc(-c2cccc(OC)c2)oc1C`, the “% Inhibition @ 10 uM” value is -3.7%.

As for `N#Cc1ccccc1CSc1nc2ccsc2c(=O)n1Cc1ccccn1`, the “% Inhibition @ 10 uM” value was -1.5%.
